# Test results published in the RNAGym collection of RNA variant scans (doi:10.1101/gad.245936.114).
# Variants at the floor of the assay are shown more often than the library holds them.
# B1: tRNA (parent)
# chain: CUCUCGGUAGCCAAGUUGGUUUAAGGCGCAAGACUUUAAUUUAUCACUACGAAAUCUUGAGAUCGGGCGUUCGACUCGCCCCCGGGAGAUUUUUUCCUCGAGCAA
# Variants of: B1
# Assay: nonsense suppression (GFP-seq) (ratio to wild type); higher = more function; SUP4oc tRNA, yeast GFP reporter sort-seq
# How it was run: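 Sorted GFP/RFP bins of yeast were each Illumina-sequenced with a phred ≥30 cutoff; the cells held a genome-integrated ochre-suppressor tRNA variant from a library with ~3% random mutations, a galactose-driven GFP ochre reporter, and RFP. Culture was in raffinose/galactose medium containing 80 mg/L adenine. Nonsense suppression, termed GFPSEQ, is the median GFP/RFP of the bins weighted by each variant's estimated cell share per bin, relative to the unmutated parent tRNA, for variants reaching ≥100 reads and ≥30 cells.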
row,Variant,nonsense suppression
1,C11A G15U G18A,≤ 0.026
2,C11A G18A C27G U76G,≤ 0.026
3,C11A G18A G26U,≤ 0.026
4,C11A G18C G59C U70C C81G,≤ 0.026
5,C11A G18C U22A,≤ 0.026
6,C11A G18U,≤ 0.026
7,C11A G19U G61C,≤ 0.026
8,C11A G19U G78A A89G,≤ 0.026
9,C11A G25C,≤ 0.026
10,C11A G26A G28U,≤ 0.026
11,C11A G28C G67A,≤ 0.026
12,C11A G66U U76A,≤ 0.026
13,C11A G67A,≤ 0.026
14,C11A G67A U76A,≤ 0.026
15,C11A G67C U70G,≤ 0.026
16,C11A G67U,≤ 0.026
17,C11A G84C G86C,≤ 0.026
18,C11A U16C,≤ 0.026
19,C11A U17A C27U A62U,≤ 0.026
20,C11A U17C,≤ 0.026
21,C11A U17C C72A,≤ 0.026
22,C11A U17C G28A U76G G86A,≤ 0.026
23,C11A U17G,≤ 0.026
24,C11A U17G A30C,≤ 0.026

row,Variant,nonsense suppression
1,C11A U20A,≤ 0.026
2,C11A U20A A24G A30G G69U C75A,≤ 0.026
3,C11A U20C,≤ 0.026
4,C11A U20G C72G C79G,≤ 0.026
5,C11A U20G G88C,≤ 0.026
6,C11A U21C,≤ 0.026
7,C11A U21C U22G G32C,≤ 0.026
8,C11A U21G G59A A62U,≤ 0.026
9,C11A U21G G86A,≤ 0.026
10,C11A U21G G88A,≤ 0.026
11,C11A U22C C83U,≤ 0.026
12,C11A U22G,≤ 0.026
13,C11A U22G C27G G28A,≤ 0.026
14,C11A U35G C64U G73A,≤ 0.026
15,C11A U55C A62C U76C,≤ 0.026
16,C11A U57C,≤ 0.026
17,C11A U58A C80G,≤ 0.026
18,C11A U58A G69A,≤ 0.026
19,C11A U58G C77U,≤ 0.026
20,C11A U70C,≤ 0.026
21,C11A U70C C75A,≤ 0.026
22,C11A U70G U71C,≤ 0.026
23,C11A U71A,≤ 0.026
24,C11A U76G G88C,≤ 0.026

row,Variant,nonsense suppression
1,C11G A13C C80U,≤ 0.026
2,C11G A13G A30U C77U G86A,≤ 0.026
3,C11G A13U G65U,≤ 0.026
4,C11G A14G C29A A54G U57A G88C,≤ 0.026
5,C11G A23C U58G A74G,≤ 0.026
6,C11G A23G G28C U57G A89U,≤ 0.026
7,C11G A23G U57C U76A,≤ 0.026
8,C11G A23G U58A,≤ 0.026
9,C11G A23G U58A G65C,≤ 0.026
10,C11G A23U A33G U71G A89C,≤ 0.026
11,C11G A23U G28C,≤ 0.026
12,C11G A23U G67U A74G,≤ 0.026
13,C11G A23U G67U A74U,≤ 0.026
14,C11G A23U G86A,≤ 0.026
15,C11G A24C G26C,≤ 0.026
16,C11G A24G G69A A74G,≤ 0.026
17,C11G A24U A60C,≤ 0.026
18,C11G A30G C77A,≤ 0.026
19,C11G A30U U63C,≤ 0.026
20,C11G A31G A33G C34U C75A,≤ 0.026
21,C11G A31G G69C U70C G86A,≤ 0.026
22,C11G A31G U55A,≤ 0.026
23,C11G A31U,≤ 0.026
24,C11G A33G A60G G69U,≤ 0.026

row,Variant,nonsense suppression
1,C11G A33U C79U,≤ 0.026
2,C11G A33U U63C,≤ 0.026
3,C11G A60G C80U,≤ 0.026
4,C11G A60G G78U,≤ 0.026
5,C11G A62G,≤ 0.026
6,C11G A62G C83U A87C,≤ 0.026
7,C11G A62U C64A,≤ 0.026
8,C11G C12A A13C C29A U55C G61C C75G,≤ 0.026
9,C11G C12A A31U U57G G66U,≤ 0.026
10,C11G C12U A89U,≤ 0.026
11,C11G C12U G25U G88U,≤ 0.026
12,C11G C27A U55C A60C,≤ 0.026
13,C11G C27G A62C,≤ 0.026
14,C11G C27G U70G,≤ 0.026
15,C11G C29G,≤ 0.026
16,C11G C29G G61U,≤ 0.026
17,C11G C29U C80G C83A A89U,≤ 0.026
18,C11G C34A A62G G65U,≤ 0.026
19,C11G C34G,≤ 0.026
20,C11G C56G,≤ 0.026
21,C11G C56G G84U,≤ 0.026
22,C11G C68U G85U,≤ 0.026
23,C11G C72G C82U,≤ 0.026
24,C11G C77A,≤ 0.026

row,Variant,nonsense suppression
1,C11G C77G G85U,≤ 0.026
2,C11G C79A,≤ 0.026
3,C11G C81G,≤ 0.026
4,C11G G15A A23G A87G,≤ 0.026
5,C11G G15A U16A U76G C82U A89C,≤ 0.026
6,C11G G15U C56A,≤ 0.026
7,C11G G15U C56G C64U,≤ 0.026
8,C11G G18A C29G U35G U58G A62U,≤ 0.026
9,C11G G18C,≤ 0.026
10,C11G G18C A33G C75A,≤ 0.026
11,C11G G18C G59C U63C,≤ 0.026
12,C11G G18C G59C U63C C82G,≤ 0.026
13,C11G G18C G67C G88U,≤ 0.026
14,C11G G18U U58C G61C U76C,≤ 0.026
15,C11G G19A C56U,≤ 0.026
16,C11G G19A U35G A89U,≤ 0.026
17,C11G G19C A24G A74G A87G,≤ 0.026
18,C11G G25U C27G,≤ 0.026
19,C11G G26C,0.359
20,C11G G26U C34G G66C,≤ 0.026
21,C11G G28C,≤ 0.026
22,C11G G28C C29A U35C C68G,≤ 0.026
23,C11G G32A,≤ 0.026
24,C11G G59A,≤ 0.026

row,Variant,nonsense suppression
1,C11G G59C,≤ 0.026
2,C11G G65A,≤ 0.026
3,C11G G65C C68G,≤ 0.026
4,C11G G65U,≤ 0.026
5,C11G G66U A74G,≤ 0.026
6,C11G G69A G78U,≤ 0.026
7,C11G G73C U76G,≤ 0.026
8,C11G G88A A89U,≤ 0.026
9,C11G U16A A31U,≤ 0.026
10,C11G U16G,≤ 0.026
11,C11G U16G A24G C56A A60G G86U,≤ 0.026
12,C11G U16G U58A G61A G67C,≤ 0.026
13,C11G U16G U63G,≤ 0.026
14,C11G U17A G28A U55C,≤ 0.026
15,C11G U17C,≤ 0.026
16,C11G U20C G25U U63G C75A G78C,≤ 0.026
17,C11G U20G A33G G61A,≤ 0.026
18,C11G U22G,≤ 0.026
19,C11G U35A,≤ 0.026
20,C11G U57C U58C G61C G86A A87U,≤ 0.026
21,C11G U57G C77G,≤ 0.026
22,C11G U57G C77U,≤ 0.026
23,C11G U57G G59C A87U,≤ 0.026
24,C11G U63A G73C G84A,≤ 0.026

row,Variant,nonsense suppression
1,C11G U70C G85C,≤ 0.026
2,C11G U71C,≤ 0.026
3,C11G U71C G78C,≤ 0.026
4,C11G U71G C83G A87G G88A,≤ 0.026
5,C11G U76G,≤ 0.026
6,C11U A13C A23C,≤ 0.026
7,C11U A13G U22A C80U,≤ 0.026
8,C11U A13U A14G G66C,≤ 0.026
9,C11U A13U G18A C56U,≤ 0.026
10,C11U A14C G18U U63G,≤ 0.026
11,C11U A14C U17G C83A,≤ 0.026
12,C11U A14C U63G C77A,≤ 0.026
13,C11U A14U A30G,≤ 0.026
14,C11U A14U G78A,≤ 0.026
15,C11U A23C,≤ 0.026
16,C11U A23C C27A,≤ 0.026
17,C11U A23C G25A C80U,≤ 0.026
18,C11U A23C U55G U57G G61A,≤ 0.026
19,C11U A23G A31G U76A,≤ 0.026
20,C11U A23G C27G G78C G85C,≤ 0.026
21,C11U A24C A54C U58G G66A,≤ 0.026
22,C11U A24G,≤ 0.026
23,C11U A24G C27A,≤ 0.026
